# Article PMC13083723 (Patterns, 2026)
# Among all 5,400 compounds or so, about 190 (3.5%) showed an effect of 50% or more. This is one part of the list.
# Test system: Vero-E6
# Experiment: primary screen, phospholipidosis by LipidTOX staining; higher = more effect of the substance
# Conditions: 10 µM
# Method in brief: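 Drug-induced phospholipidosis detected with HCS LipidTOX Red reagent in Vero-E6 cells. Compounds tested at 10 μM, with amiodarone (10 μM) as positive control and DMSO (0.1 v/v %) as vehicle.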
row,SMILES,result_ITMP [%]
1,Cc1ccc2nc(N)nc(O)c2c1Sc1ccncc1,3.27
2,CCC(=O)c1cc(-c2ccc(Cl)cc2)n(-c2ccc(S(N)(=O)=O)cc2)c1C,2.2
3,C[C@H](Oc1cc(-c2cnn(C3CCNCC3)c2)cnc1N)c1c(Cl)ccc(F)c1Cl,70.2
4,CN(C)CCOC(=O)COc1ccc(Cl)cc1,-9.35
5,CN1CC[C@@]2(C)c3cc(O)ccc3N(C)[C@H]12,24.8
6,Brc1c(NC2=NCCN2)ccc2nccnc12,0.37
7,N[C@@H](CC(=O)NO)C(=O)O,-6.2
8,CC(=O)OCC(=O)[C@@]12OC(C)(C)O[C@@H]1CC1C3C[C@H](F)C4=CC(=O)C=C[C@]4(C)[C@@]3(F)[C@@H](O)C[C@@]12C (some centres unmarked),-3.35
9,C#Cc1cnc(O)nc1O,-3.59
10,COc1ccc(-c2cc(C(F)F)nn2-c2ccc(S(N)(=O)=O)cc2)cc1F,-2.05
11,CCCN1CCO[C@@H]2c3cc(O)ccc3OC[C@H]21,-3.86
12,CC(O)COC[C@H]1OC2O[C@H]3[C@H](O)[C@@H](O)C(O[C@H]4[C@H](O)[C@@H](O)C(O[C@H]5[C@H](O)[C@@H](O)C(O[C@H]6[C@H](O)[C@@H](O)C(O[C@H]7[C@H](O)[C@@H](O)C(O[C@H]8[C@H](O)[C@@H](O)C(O[C@H]1[C@H](O)[C@H]2O)O[C@@H]8COCC(C)O)O[C@@H]7COCC(C)O)O[C@@H]6COCC(C)O)O[C@@H]5COCC(C)O)O[C@@H]4COCC(C)O)O[C@@H]3COCC(C)O (some centres unmarked),-3.69
13,O=C(O)CCc1cc(C(=O)c2ccc(OC3CCCC3)cc2O)ccc1OCc1ccc2c(O)noc2c1,0.52
14,CCCCC1OC(=O)c2ccccc21 (centres unmarked),0.34
15,O=C(O)c1cc(O)c2ccc(Cl)cc2n1,0.78
16,CCC[C@@H]1C[C@@H](C(=O)N[C@@H](C2O[C@H](SC)[C@H](O)[C@@H](O)[C@H]2O)[C@H](C)Cl)N(C)C1 (some centres unmarked),-0.24
17,NC(=O)C1=CN([C@@H]2O[C@H](COP(=O)([O-])OP(=O)([O-])OC[C@H]3O[C@@H](n4cnc5c(N)ncnc54)[C@H](O)[C@@H]3O)[C@@H](O)[C@H]2O)C=CC1,-10.8
18,CC(C)CN(C[C@@H](OP(=O)(O)O)[C@H](Cc1ccccc1)NC(=O)O[C@H]1CCOC1)S(=O)(=O)c1ccc(N)cc1,1.29
19,CC[C@@H](Nc1c(Nc2cccc(C(=O)N(C)C)c2O)c(=O)c1=O)c1ccc(C)o1,-0.76
20,CCCCCCCCN=c1ccn(CCCCCCCCCCn2ccc(=NCCCCCCCC)cc2)cc1,25.9
21,CCCC[P+](CCCC)(CCCC)Cc1ccc(NC(=O)[C@H](Cc2ccc3ccccc3c2)N/C(=N/C2CCCCC2)NC2CCCCC2)cc1,9.79
22,COc1ccc(C(=O)NCc2ccc(OCCN(C)C)cc2)cc1OC,6.48
23,N[C@@H](C(=O)N[C@@H]1C(=O)N2C(C(=O)O)=C(Cl)CS[C@H]12)c1ccccc1,-2.38
24,CN1CCN(c2cccc3[nH]c(=O)oc23)CC1,-1.83
25,CCCCCCCCCCCCCCCC[n+]1ccccc1,-1.64

row,SMILES,result_ITMP [%]
1,CCC(C)[C@H]1O[C@]2(CC[C@@H]1C)C[C@@H]1C[C@@H](C/C=C(\C)[C@@H](OC3C[C@H](OC)C(O[C@H]4C[C@H](OC)[C@@H](O)[C@H](C)O4)[C@H](C)O3)[C@@H](C)/C=C/C=C3\CO[C@@H]4[C@H](O)C(C)=C[C@@H](C(=O)O1)[C@]34O)O2 (some centres unmarked),-4.22
2,O=C1c2ccccc2S(=O)(=O)N1CCCCN1CCN(c2ncccn2)CC1,-10.7
3,COc1ccc2c(c1)c(CC(=O)OCC(C(=O)O)c1ccccc1)c(C)n2C(=O)c1ccc(Cl)cc1 (centres unmarked),5.87
4,Cn1c([N+](=O)[O-])cnc1COC(N)=O,-1.34
5,NC(N)=O,-2.14
6,CCN(c1cc(-c2ccc(CN3CCOCC3)cc2)cc(C(=O)NCc2c(C)cc(C)[nH]c2=O)c1C)C1CCOCC1,-11.2
7,Cc1cccc(C)c1NC(=O)CN1CCCCCC1,-0.91
8,O=C(O)CC1CC(c2ccccc2)=NO1 (centres unmarked),-4.92
9,COc1ccc(C2Oc3c(CC=C(C)C)c(O)cc(O)c3C(=O)C2=O)cc1 (centres unmarked),-2.61
10,CCCn1c(=O)c2nc(-c3ccccc3)[nH]c2n(CCC)c1=O,-7.21
11,Cc1ccc2c(c1)C(=O)C1(O)CCN(c3ccccc3)C1=N2 (racemic),-2.01
12,C[C@]12CC[C@@H]3c4ccc(O)cc4CC[C@H]3[C@@H]1C[C@@H](O)[C@@H]2O,-1.55
13,Cc1nc(N)sc1-c1ccnc(Nc2ccc(N3CCOCC3)cc2)n1,-4.52
14,O=C(OCCN1CCOCC1)c1cccnc1Nc1cccc(C(F)(F)F)c1,-5.21
15,O=C(O[C@H]1C[C@H]2CC[C@@H](C1)[N+]21CCCC1)C(O)(c1ccccc1)c1ccccc1,-3.78
16,CCCCC(=O)O[C@]1(C(=O)CO)CC[C@H]2[C@@H]3CCC4=CC(=O)CC[C@]4(C)[C@H]3[C@@H](O)C[C@@]21C,6.06
17,CC1(C)C[C@@H]1C(=O)N/C(=C\CCCCSC[C@H](N)C(=O)[O-])C(=O)O,-1.62
18,CCC[C@H](NC(=O)[C@@H]1[C@H]2CCC[C@H]2CN1C(=O)[C@@H](NC(=O)[C@@H](NC(=O)c1cnccn1)C1CCCCC1)C(C)(C)C)C(=O)C(=O)NC1CC1,-3.28
19,Cc1noc(NS(=O)(=O)c2ccc(N)cc2)c1C,-0.76
20,CCc1cccc2c3c([nH]c12)C(CC)(CC(=O)O)OCC3 (centres unmarked),2.2
21,CC[N+](CC)(CC)CCC(O)(c1ccccc1)C1CCCCC1 (centres unmarked),-9.31
22,CSc1ccc(C(=O)/C=C/c2cc(C)c(OC(C)(C)C(=O)O)c(C)c2)cc1,-2.18
23,N=C(N)c1ccc(-c2ccc(-c3ccc(C(=N)N)cc3)o2)cc1,-7.69
24,Cn1cc(S(C)=O)c(=O)c2ccc(F)cc21 (centres unmarked),0.88
25,O=C(O)c1ccccc1C(=O)Nc1ccc(-c2ccccc2)cc1,-1.06
